# Measurements published in the supplement of paper PMC10338343.
# ± gives the standard deviation. Whole data set: some 6,600 sequences, median “pre-steady-state target cleavage rate” near 0.07, cut for the highest 2% near 0.72. The entries are a selection whose mix differs from that of the whole data set.
# Tested on: MIWI (PIWIL1) piRISC loaded with Kctd7 piRNA (30 nt)
# Assay: pre-steady-state target cleavage rate (min^-1); MIWI and MILI are mouse PIWI proteins and EfPiwi is from a freshwater sponge; tags in brackets are library labels; higher = faster piRNA-guided slicing of the target
# Conditions: guide: Kctd7 piRNA 5'p-UGUUAAUCUCUCAGAGAAGGUGACAGUGAU; auxiliary factor: 500 nM mouse GTSF1
# Summary of the method: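 A burst-and-steady-state fit was used to obtain the pre-steady-state cleavage rate. The input data were sequencing reads of uncleaved targets, normalised to depth and to weakly complementary targets, from a […] transcribed, DNA-blocked target RNA library mixed with 1 nM active affinity-purified piRISC holding one synthetic guide, with or without 500 nM GTSF1 partner protein, in HEPES–potassium acetate buffer at 33 °C for 0–8 or 0–960 min. Three trials were pooled and k3 was capped at 0.0001 min^-1.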
# 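Note: 1 nM active piRISC with 0.1 nM target library at 33 °C single turnover.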
row,Sequence,pre-steady-state target cleavage rate
1,UACACACACACCUUCUCUGAGAGAUUAACA,0.412 ± 0.036
2,UAGUGUGUCUCCUUGUCUGAGAGAUUAACA,0.0757 ± 0.011
3,AUCACUCUCACCUUCUCUGAGUGAUUAACA,0.0296 ± 0.0065
4,UUCACUGUCUCCUUCUCUGAGAGAUUUACA,0.267 ± 0.036
5,UAGUGUGUCACGUUCACUGAGAGAUUAACA,0.415 ± 0.026
6,UAGUGUGUCAGGAUCUCUGAGAGAUUAAGA,0.00435 ± 0.0028
7,UACACUCUCACCUUCUCUGAGAGAUUAUGA,0.0353 ± 0.013
8,AUCACUGUCACCUUCGCUGAGAGAUUAACA,0.564 ± 0.049
9,UAGUCUGUCACCUUCUCUGAGAGAUAAUGA,0.0204 ± 0.0082
10,UUCACUGUCACCUUCUCUGACUCAUUAACA,0.00765 ± 0.0022
11,UACACUGUCAGCUACUCUGAGAGAUUAACA,0.562 ± 0.027
12,UUCACUGUCACCUUCUCUGAGAGAUUAACU [g2:g29:cont:t1U],0.432 ± 0.036
13,AUACACUGUCACCUUCUCUGAGAGAUUAACA,0.752 ± 0.05
14,UACACUGUCACGUUCUCUGAGAGAUUAUGA,0.0469 ± 0.017
15,AUCACUCUCACCUUCUCUGAGAGAUUUACA,0.191 ± 0.03
16,UAGACUGUCACCUUCUCAGAGAGAUAAACA,0.107 ± 0.014
17,UAGUGACUCACCUUCUGUGACAGAUUAACA,0.177 ± 0.014
18,AUCACUGUCACCUUCUCUGAGCGAUUAACA,0.121 ± 0.012
19,UUCGCUGUCACCUUCUCUGAGAGAUUAACA,0.626 ± 0.04
20,UUCACUGUCACCUUCUCUGAGACAUUAUCA,0.0186 ± 0.0051
21,AUCACUGUGACCUUCUCUGAGAGAUAAACA,0.334 ± 0.032
22,AUCACUGUCUGCUUCUCUGAGAGAUUUUGA,0.00782 ± 0.0039
23,UAGUGACAGACCUUCUCUGUGAGAUAAACA,0.012 ± 0.003
24,UUCACUGUCACCUUCUCUAGAGAUUAACA,0.14 ± 0.012

row,Sequence,pre-steady-state target cleavage rate
1,UAGACUGUCAGGAUCUCUGAGAGAUUAACA,0.054 ± 0.0074
2,UAGUGACAGACCUUCUCUAAGAGAUUAACA,0.0302 ± 0.0063
3,AUCACUGUCACCUUCUCUGAGAGCUUAACA,0.26 ± 0.024
4,UUCACUGUCAGCUUCUCUGAGAGAUUAAGA,0.122 ± 0.018
5,UAGUGACAGUGGAAGACUGAGUGUUUAACA,< 0.0001
6,UAGUCUGAGACCUUCUCUGAGAGAUUUUGA,0.00468 ± 0.003
7,UACAGUGUCACCUUGUCUGAGAGAUUAACA,0.225 ± 0.033
8,UAGUGACACACACUUCUCUGAGAGAUUAACA,0.163 ± 0.03
9,UAGUGACACAGGUUCUCUGAGAGAUUAACA,0.0143 ± 0.0033
10,UAGUGAGUCACCUUCUCUGACUGAUUAACA,0.0164 ± 0.0051
11,UAGUGUGUCACGUUCUCUCAGAGAUUAACA,0.0527 ± 0.0067
12,UAGUGACUGACCUUCUGUGAGAGAUUAACA,0.172 ± 0.023
13,UUCUCUGUCACCUUCUCUGAGAGAUUAUGA,0.0755 ± 0.016
14,UAGUGACAGUGCUUCUCUGAGACAUAAACA,< 0.0001
15,UAGUGACACACCUUUCUCUGAGAGAUUAACA,0.155 ± 0.012
16,AUCACUGUCACCUUCUCUGAGCAGAUUAACA,0.0104 ± 0.0035
17,UAGACUGUCACGAACUCUGAGAGAUUAACA,0.039 ± 0.007
18,UUCACUGUCAGCUUCUCUGAGAGAUUUUGA,0.0139 ± 0.0051
19,UAGUCUGUCACCUUCUAUGAGAGAUUAACA,0.207 ± 0.013
20,UACACUGUCUCCUUCUCUGAGAGAUUAUCA,0.165 ± 0.027
21,UACACUGUCACCUUCUCUGAGAGAUUAACA [g2:g28:cont:t1A],0.563 ± 0.039
22,UUCACUGACUCCUUCUCUGAGAGAUUAACA,0.571 ± 0.033
23,UAGUGACUGACCUUCUCUGAGUGAUUAACA,0.0116 ± 0.0056
24,UAGUGACAGACCUUCUCUGAGAGAUUAACA [g2:g21:cont:t1A],0.17 ± 0.015

row,Sequence,pre-steady-state target cleavage rate
1,AUCACUGUCACCAUCUCUGAGAGAUUAUGA,0.0692 ± 0.015
2,AUCACUGUCACCAUCUCUGAGAGAUUAAGA,0.184 ± 0.032
3,UUCUCUGUCACCUUCUCUGAGAGAUAUUGA,0.0992 ± 0.024
4,UAGUGAGUUACCUUCUCUGAGAGAUUAACA,0.512 ± 0.032
5,AUCACUGUCACCUUCUCUGAGAGAAAAAGA,0.0146 ± 0.0056
6,UAGUCUGUCUGCUUCUCUGAGAGAUUAUGA,0.00592 ± 0.0022
7,UAGUGAGUCACCUUCUCUGAGAGAAUAAGA,0.0835 ± 0.026
8,UAGUGACAGACUUCUCUGAGAGAUUAACA,0.0115 ± 0.0032
9,UAGUCAGUCACCUUCUCUGAGAGUUUAACA,0.418 ± 0.064
10,UAGACUCACACCUUCUCUGAGAGAUUUUGA,0.0525 ± 0.013
11,UAGUGAGUGUCCUUCUCUGAGAGAUUAACA,0.268 ± 0.025
12,UUCACUCUCACCUUCUCUGAGAGAUUUACA,0.192 ± 0.026
13,UAGUGUGUCACCUUCUGUGAGAGAUUAUGA,0.0169 ± 0.0063
14,UUCACUGUCACCUUCUCUGAGAGAAUAACA,0.331 ± 0.048
15,UAGUGACUAACCUUCUCUGAGAGAUUAACA,0.196 ± 0.012
16,UACACUGUCACCUUCACUCAGAGAUUAACA,0.0464 ± 0.013
17,UAGUGUGUAACCUUCUCUGAGAGAUUAACA,0.349 ± 0.03
18,AUCACUGUCACCUUCCCUGAGAGAUUAACA,0.449 ± 0.064
19,UAGUGACACUCCUUCUCUGUGAGAUUAACA,0.0537 ± 0.0069
20,AUCCACUGUCACCUUCUCUGAGAGAUUAACA,0.712 ± 0.046
21,UUCACUGAGUCCUUCUCUGAGAGAUAUUGA,0.00996 ± 0.0042
22,AUCUCUGACACCUUCUCUGAGAGAUUAACA,0.558 ± 0.021
23,UUCACUGUCACCUUCUCUGACAGAUUUUGA,0.00611 ± 0.003
